From PubChem BioAssay AID588855 (National Center for Advancing Translational Sciences (NCATS), 2011)
The whole screen tested about 410,000 compounds, of which about 5,000 (1.2%) were called active. The inconclusive results got no clear call from the source; some entries with a clear call stand among them for comparison. Calls follow the shape of the dose curve; as a rule, active = well fitted inhibition curve with a large enough effect; inconclusive = small, poorly fitted or top-dose-only effect; inactive = no such curve, though single readings can be large or run the other way. Potencies of inconclusive entries are doubtful fits and often do not repeat.
Potency is read from the fitted curve at half-maximal effect; tags tell the direction and shape of the fitted curve.

Assay: qHTS for Inhibitors of TGF-b; also: nearly all actives have a fitted effect of over 65% in size
Settings: HepG2 CAGA-GFP TGF-b/SMAD3 reporter, GFP fluorescence, 18 h, TGF-beta stimulated, 500 pg/mL final; series mostly up to 46.1 µM
Procedure, shortened: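 HEPG2 CAGA-GFP reporter cells (1000/well, DMEM with 1% FBS) received compounds, then recombinant TGF-beta at 500 pg/mL final for 18 hours at 37 degrees C. Per-cell GFP summed per well was normalised to unstimulated and stimulated DMSO controls before curve fitting.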
In the case of `Cc1ccc(SCc2nc3ccccc3n2CC(=O)Nc2ccc(Cl)cc2)cc1`, the Potency is reported as inconclusive: 28.2 µM [inhibitor, single point].
With `Cc1cccc(C)c1NC(=O)C(Cl)C(=O)c1ccccc1` (stereo not drawn) the Potency was active: 11.2 µM.
For `Cc1ccccc1C(=O)N/N=C/c1ccc([N+](=O)[O-])s1`, the Potency was inconclusive: 10 µM [inhibitor, partial curve, poor fit].
In the case of `CN(CC(=O)Nc1ccc(F)c(F)c1F)C(=O)C1CCC1`, the Potency is reported as “inactive”.
In the case of `Cc1nc(-c2ccccc2)sc1-c1ccc(SCC(=O)Nc2ccc(F)cc2F)nn1`, the Potency is reported as “inactive”.
In the case of `COC(CN(C)C(=O)C1CCCN(S(=O)(=O)c2ccc3c(c2)oc(=O)n3C)C1)OC` (stereo not drawn), the Potency is reported as “inactive”.
For `CCN(CC)CCOc1ccc(/C(=C(\Cl)c2ccccc2)c2ccccc2)cc1`, the Potency was inconclusive: 35.5 µM [inhibitor, single point].
For `CCc1ccccc1N(CC)C(=O)c1cc2c(s1)-c1ccccc1OC2`, the Potency was inconclusive: 25.1 µM [inhibitor, single point].
In the case of `Cc1cc(C)nc(NC(N)=NC(C)c2ccccc2)n1` (stereo not drawn), the Potency is reported as inconclusive: 25.1 µM [inhibitor, single point].
For `NC(=O)CN1CCOCCOCCN(CC(N)=O)CCOCC1`, the Potency was “inactive”.
With `COc1ccc(OC)c2sc(N3CCc4ccccc4C3)nc12` the Potency was “inactive”.
In the case of `CCN1CCS/C1=C\C=C\C1=[N+](CC)CCS1`, the Potency is reported as inconclusive: 11.2 µM [inhibitor, single point].
For `CCc1ccc(-n2nc(CO)c(C(=O)NCc3ccccn3)n2)cc1`, the Potency was inconclusive: 35.5 µM [inhibitor, single point].
In the case of `Cc1ccc2oc3c(SCc4nc5ccccc5[nH]4)nc(C)nc3c2c1`, the Potency is reported as inconclusive: 35.5 µM [inhibitor, single point].
With `COc1ccc(OC)c(CCNC(=O)c2ccc(CS(=O)Cc3cccc(Cl)c3)o2)c1` (stereo not drawn) the Potency was inconclusive: 35.5 µM [inhibitor, single point].
In the case of `COc1cccc(-c2noc(C3CCCN(C(=O)CC(C)(C)C)C3)n2)c1` (stereo not drawn), the Potency is reported as “inactive”.
With `Cc1ccccc1CSc1nc2nc(C)c(Cc3ccccc3)c(C)n2n1` the Potency was inconclusive: 14.1 µM [inhibitor, single point].
With `CCOc1ccc(NC(=O)Cn2nc(-c3ccccc3Cl)n(CC)c2=S)cc1` the Potency was inconclusive: 15.8 µM [inhibitor, single point].
In the case of `CCN1C(=O)[C@H]2[C@@H](c3ccc(-c4cccc(Cl)c4)cc3)N[C@@](Cc3ccccc3)(C(=O)OC)[C@H]2C1=O`, the Potency is reported as inconclusive: 5.62 µM [inhibitor, single point].
With `COc1cccc(N2CC(C(=O)Nc3nnc(SCC(=O)c4ccccc4)s3)CC2=O)c1` (stereo not drawn) the Potency was inconclusive: 35.5 µM [inhibitor, single point].
For `CC(=O)Oc1ccc(Oc2ccc(-c3noc(C)n3)cc2)cc1`, the Potency was inconclusive: 25.1 µM [inhibitor, single point].
For `COc1ccc(CNC(=O)C2CC(c3ccccc3[N+](=O)[O-])=NO2)cc1` (stereo not drawn), the Potency was “inactive”.
In the case of `COc1cccc(NC(=O)c2oc3ccccc3c2NC(=O)C(C)(C)C)c1`, the Potency is reported as “inactive”.
With `Cc1ccc(NC(=O)Cc2ccc(Cl)cc2)cc1S(=O)(=O)N1CCCCCC1` the Potency was inconclusive: 35.5 µM [inhibitor, single point].
In the case of `O=C(Nc1cccc(Cl)c1)Nc1ccnc(-c2cccnc2)n1`, the Potency is reported as inconclusive: 14.1 µM [inhibitor, partial curve, poor fit].
In the case of `O=C(NC(c1ccc(Cl)cc1)c1cnccn1)C1CCN(CCCOc2ccccc2)CC1` (stereo not drawn), the Potency is reported as “inactive”.
With `O=C(c1ccccc1)N1CCN(C(=O)c2ccccc2)c2ccccc21` the Potency was “inactive”.
For `C[C@H]1CN([C@@H](C)CO)C(=O)Cc2cc(NC(=O)Nc3ccccc3)ccc2O[C@H]1CN(C)Cc1ccccc1`, the Potency was inconclusive: 35.5 µM [inhibitor, partial curve, poor fit].
For `Cc1noc(/C=C/c2cccnc2)c1[N+](=O)[O-]`, the Potency was inconclusive: 35.5 µM [inhibitor, single point].
In the case of `O=C(Nc1ccc(F)c(Cl)c1)C1CC(=O)N(Cc2ccco2)C1` (stereo not drawn), the Potency is reported as inconclusive: 3.55 µM [inhibitor, partial curve, poor fit].
For `CCC(C)NC(=O)Cn1c(=O)n(-c2ccc(C)cc2)c(=O)c2ccccc21` (stereo not drawn), the Potency was inconclusive: 0.631 µM [inhibitor, partial curve, poor fit].
For `Cc1ccccc1N(CC(=O)NCCSc1ccccn1)S(=O)(=O)c1ccccc1`, the Potency was inconclusive: 35.5 µM [inhibitor, single point].
For `CCc1ccc(NC(=O)c2ccc(CN3CC(=O)N4CCCCC4C3=O)cc2)cc1` (stereo not drawn), the Potency was inconclusive: 20 µM [inhibitor, single point].
For `c1ccc2c(c1)Cc1cc(CN3CCOCC3)ccc1-2`, the Potency was “inactive”.
In the case of `C=CCC[C@H](Cc1ccc(F)cc1)C(=O)OC[C@H](Cc1c[nH]c2ccccc12)NC(=O)[C@@H](CC=C)CC(=O)N[C@H](CO)Cc1ccccc1`, the Potency is reported as active: 12.6 µM.
For `COc1ccc(Cl)cc1C(=O)Nc1ccccc1N1CCN(C(=O)C(C)C)CC1`, the Potency was “inactive”.
With `CC(C)(C)OC(=O)N1CCC(NC(=O)c2[nH]cnc2C(=O)N[C@@H](Cc2ccccc2)C(=O)OCc2ccccc2)CC1` the Potency was inconclusive: 22.4 µM [inhibitor, single point].
With `Cc1ccc(SCCNC(=O)c2ccc(C)c(S(=O)(=O)Nc3cccc(C)c3)c2)cc1` the Potency was active: 12.6 µM.
For `Cc1c(Cl)cccc1NC(=O)N1CCN(C(=O)c2nsc3ccccc23)CC1`, the Potency was inconclusive: 12.6 µM [inhibitor, partial curve].
In the case of `O=C(COC(=O)/C(=C/c1cccs1)c1cccs1)NC(c1ccccc1)c1ccccc1`, the Potency is reported as active: 12.6 µM.
For `Cn1c(=O)oc2cc(S(=O)(=O)N3CCN(c4ccccc4)CC3)ccc21`, the Potency was inconclusive: 5.62 µM [inhibitor, single point].
For `Cc1ccc2nc(-c3ccc(NC(=O)CSc4nccc(=O)[nH]4)cc3)sc2c1`, the Potency was “inactive”.
In the case of `O=C(Nc1cccc(Cl)c1)C1C2CCC3C(CCC21)C3(Cl)Cl` (stereo not drawn), the Potency is reported as inconclusive: 11.2 µM [inhibitor, partial curve, poor fit].
